# Measurements: publication PMC4336329 (PLoS ONE, 2015)
# The campaign covered roughly 310,000 compounds. About 2,200 (0.71%) showed an effect of 50% or more. The effect is printed as a negative number. The list shows a part of the results.
# Molecular target: human ether-à-go-go-related gene (hERG) potassium channel (human, UniProt Q12809)
# Assay: primary screen, population patch clamp on CHO cells stably expressing hERG
# Chain of human ether-à-go-go-related gene (hERG) potassium channel (Q12809 whole entry, looked up): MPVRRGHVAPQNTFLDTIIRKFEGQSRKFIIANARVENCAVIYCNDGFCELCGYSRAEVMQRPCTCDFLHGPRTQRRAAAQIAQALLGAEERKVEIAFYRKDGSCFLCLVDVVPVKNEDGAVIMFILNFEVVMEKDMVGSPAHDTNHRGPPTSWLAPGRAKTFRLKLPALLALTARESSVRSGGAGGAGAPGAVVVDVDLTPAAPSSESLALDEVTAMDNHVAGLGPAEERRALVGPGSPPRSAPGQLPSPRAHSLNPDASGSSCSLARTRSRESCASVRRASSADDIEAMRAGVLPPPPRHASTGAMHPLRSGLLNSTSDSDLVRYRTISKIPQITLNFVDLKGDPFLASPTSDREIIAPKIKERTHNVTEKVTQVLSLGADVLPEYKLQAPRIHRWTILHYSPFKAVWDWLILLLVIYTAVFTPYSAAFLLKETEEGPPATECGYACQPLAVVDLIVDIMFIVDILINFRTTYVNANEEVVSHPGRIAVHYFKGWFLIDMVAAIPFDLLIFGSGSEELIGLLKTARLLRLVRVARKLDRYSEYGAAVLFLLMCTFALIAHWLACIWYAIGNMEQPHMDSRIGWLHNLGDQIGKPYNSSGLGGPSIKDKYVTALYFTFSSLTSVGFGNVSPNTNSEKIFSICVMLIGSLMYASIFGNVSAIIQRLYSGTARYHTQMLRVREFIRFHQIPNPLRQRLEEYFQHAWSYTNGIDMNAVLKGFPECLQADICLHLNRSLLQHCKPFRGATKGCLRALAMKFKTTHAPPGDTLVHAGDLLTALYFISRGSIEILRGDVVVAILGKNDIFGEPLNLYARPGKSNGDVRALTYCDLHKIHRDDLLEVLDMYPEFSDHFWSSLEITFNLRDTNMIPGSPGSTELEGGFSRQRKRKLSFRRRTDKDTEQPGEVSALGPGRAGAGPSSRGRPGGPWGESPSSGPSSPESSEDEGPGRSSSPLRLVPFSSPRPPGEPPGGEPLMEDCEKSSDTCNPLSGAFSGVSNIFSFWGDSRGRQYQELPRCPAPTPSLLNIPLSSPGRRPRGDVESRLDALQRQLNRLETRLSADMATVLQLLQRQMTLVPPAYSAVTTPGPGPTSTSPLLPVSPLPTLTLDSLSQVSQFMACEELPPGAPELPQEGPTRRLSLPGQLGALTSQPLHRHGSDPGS
row,SMILES,"hERG current change (%, negative = inhibition) at 1uM [%]"
1,CCCCNC(=O)N1CCN(C(c2ccccc2)c2ccccc2)CC1,12.2
2,CCCC1=[N+](CC(=O)c2ccccc2)CCn2cccc21.[Br-],15.8
3,CCN(CC)c1ccc(N=Cc2cc(Br)ccc2O)cc1,9.23
4,CCOC(=O)Nc1ccc2c(c1)N(C(=O)CN(C)C)c1ccccc1CC2.Cl,10.9
5,CSCc1ccc(C(=O)NC(C)c2ccc(-n3ccnc3)cc2)cc1 (centres unmarked),-10
6,COc1cc(/C=N/O)cc(Br)c1OCc1ccc(Cl)cc1,3.09
7,N=c1c(S(=O)(=O)c2ccc(Br)cc2)cc2c(=O)n3ccccc3nc2n1Cc1ccccc1,7.3
8,CCN(CCCNC(=O)COc1cc(=O)n(CC)c2ccccc12)Cc1ccccc1,-4.81
9,CCN(C(=O)CSc1nnc(COc2ccccc2F)n1N)C1CCS(=O)(=O)C1 (centres unmarked),11.1
10,CCOc1ccccc1NC(=O)C(OC(=O)c1ccccc1O)c1ccccc1 (centres unmarked),-2.03
11,CN1CCCC(OC(=O)c2cc(F)c(F)c(F)c2F)C1.Cl (centres unmarked),12.3
12,Cc1ccc(S(=O)(=O)N2CCCCC2)cc1NC(=O)COC(=O)c1ccc(=O)[nH]c1,11.5
13,COc1ccc(-c2nnn(CC(=O)N(Cc3ccccc3Cl)C(C(=O)NCC3CCCO3)c3ccco3)n2)cc1OC (centres unmarked),15.7
14,Cc1ccc(N2CC(C(=O)N3CCOCC3)CC2=O)cc1Cl (centres unmarked),-1.46
15,Cc1ccc(S(=O)(=O)NC2CC2)s1,6.4
16,O=C(Cc1c(F)cccc1Cl)Nc1ccccc1C(=O)N1CCCCC1,-4.41
17,CCc1ccc(-c2cc(C(=O)NN3CCOCC3)c3ccccc3n2)s1,6.18
18,C=CCOc1ccc(/C=N/O)cc1Cl,14.5
19,COc1ccccc1Oc1c(C)oc2cc(OC(=O)c3ccco3)ccc2c1=O,3.32

row,SMILES,"hERG current change (%, negative = inhibition) at 1uM [%]"
1,CCc1nnc(SCC(=O)Nc2ccc(F)cc2)o1,14.8
2,CCOC(=O)Cn1c(=O)oc2cc(S(=O)(=O)N(CCN(C)C)Cc3ccccc3)ccc21,-0.0088
3,Cl.O=C(CCN1CCCC1)Nc1ccccc1,5.05
4,Cc1ccnc(SCCn2c(N3CCN(Cc4ccccc4)CC3)nc3c2c(=O)[nH]c(=O)n3C)n1,12.1
5,O=C(NCCc1ccccc1)c1ccc(-c2ccccc2C(F)(F)F)o1,2.13
6,COc1ccc(N2CCN(CC(=O)NC(=O)NCc3ccccc3)CC2)cc1,18.6
7,N#Cc1c(-n2cccc2C=O)sc2c1CCCC2,4.62
8,COc1ccccc1/C=C(/CC(=O)NCc1ccc2c(c1)OCO2)c1nc2ccccc2s1,12.2
9,O=C1C=C(NCc2ccc(Cl)c(Cl)c2)CC1,-0.816
10,O=C(NNS(=O)(=O)c1ccccc1[N+](=O)[O-])c1cc2ccccc2cc1O,9.77
11,COC(=O)c1ccc(NC(=O)CSc2nnc(-c3ccccc3)n2C)cc1,10.7
12,COc1cccc(NC(=O)c2ncc(Cl)c(Cl)c2Cl)c1,-5.42
13,O=C(COC(=O)c1ccc(NS(=O)(=O)c2ccc3c(c2)OCCO3)cc1)NC1CC1,2.56
14,CCOC(=O)N1CCN(S(=O)(=O)N2CCCC(C(=O)NCCCN3CCCCC3CC)C2)CC1 (centres unmarked),6.17
15,O=C(c1ccoc1)N1CCC2(CC1)Oc1ccc(F)cc1C(=O)C21CC(c2cccnc2)=NO1 (centres unmarked),-1.27
16,CCOCC(O)CNC(=O)c1ccc(OC2CCN(C(=O)c3cccnc3)CC2)cc1 (centres unmarked),22.1
17,O=C1NCC(COc2ccc(Cl)cc2)O1 (centres unmarked),19.9
18,COc1ccc(CNC(=O)CS(=O)(=O)Cc2nc(-c3cccc(OC)c3)oc2C)cc1,6.6
19,O=C(O)C1C2CCC(C2)C1C(=O)NCCC1=CCCCC1 (centres unmarked),10.4

row,SMILES,"hERG current change (%, negative = inhibition) at 1uM [%]"
1,CCc1nc(SCc2nc3ccccc3[nH]2)c2oc3ccccc3c2n1,14.7
2,O=C(NCc1ccc2c(c1)OCO2)c1cc2n(n1)C(C(F)(F)F)CC(c1ccc3c(c1)OCO3)N2 (centres unmarked),8.69
3,Clc1cc(Br)ccc1OCCOCCN1CCOCC1,-4.31
4,Cn1cc(CNCc2ccc(-n3cccn3)cc2)c(-c2ccccc2F)n1,-35.4
5,CCCCn1c(N)c(N(CC(C)C)C(=O)c2cnc(C)cn2)c(=O)[nH]c1=O,3.1
6,CCOC(=O)c1c(C)[nH]c(C)c1C(=O)CSc1nnc(-c2ccncc2)n1C,9.26
7,Cc1nc(C)c(C(=O)N2CCCC(C(=O)c3ccc(Cl)cc3C)C2)s1 (centres unmarked),0.189
8,O=C(O)C1CC=CCC1C(=O)NCc1ccc2c(c1)OCO2 (centres unmarked),-8.18
9,CCC(Sc1ccc2nnc(-c3cccnc3)n2n1)C(=O)OC (centres unmarked),-3.12
10,O=C(Cc1ccc(Br)cc1)NCCc1ccc(Cl)cc1Cl,1.4
11,O=C(O)c1ccc(C2Nc3ccccc3C(=O)N2Cc2ccccc2)cc1 (centres unmarked),10.7
12,CCOC(=O)C1=NN(C(=O)Cc2ccccc2)C(O)(c2ccc(Cl)cc2)C1 (centres unmarked),0.787
13,CC(C#N)(Cc1ccccc1)Nc1ccccc1 (centres unmarked),12.1
14,O=C(Nc1ccc2c(c1)OCCO2)c1ccc(NC(=O)C2CCCO2)cc1 (centres unmarked),14.1
15,CC(C)c1ccc(NC(=O)C2C3C=CC4(O3)C2C(=O)N(CCN2CCOCC2)C4C(=O)NC2CCCCC2)cc1 (centres unmarked),14.4
16,CSc1ccc(CN2CCN(C(C)C)C(CCO)C2)cc1 (centres unmarked),0.994
17,CCOc1ccc(NC(=S)NC(=O)c2c(Cl)cnn2CC)c([N+](=O)[O-])c1,8.49
18,O=C(c1ccc(-c2ccc([N+](=O)[O-])cc2)o1)N1CCN(S(=O)(=O)c2cccs2)CC1,-3.72
